# Reference: PubChem BioAssay AID504339 (National Center for Advancing Translational Sciences (NCATS), 2011)
# In all, about 390,000 compounds went through this assay and about 17,000 (4.4%) were called active. Inconclusive results, whose numbers are uncertain, are shown with a selection of clear calls. Calls come from the whole dose curve; as a rule, active = well fitted inhibition curve with a large enough effect; inconclusive = small, poorly fitted or top-dose-only effect; inactive = no such curve, though single readings can be large or run the other way. A potency beside an inconclusive call is a rough fit, not a confirmed value.
# Target: Lysine-specific demethylase 4A (Homo sapiens) (UniProt O75164)
# Assay: qHTS Assay for Inhibitors of JMJD2A-Tudor Domain; note: nearly all actives have a fitted effect of over 50% in size
# Conditions: AlphaScreen JMJD2A-Tudor / H3K4me3 peptide binding; series mostly up to 114 µM
# Potency is the fitted concentration of half-maximal effect; tags give direction and shape of the fitted curve.
# Chain of UniProt O75164 (O75164 whole entry, looked up, the tested form may be a part): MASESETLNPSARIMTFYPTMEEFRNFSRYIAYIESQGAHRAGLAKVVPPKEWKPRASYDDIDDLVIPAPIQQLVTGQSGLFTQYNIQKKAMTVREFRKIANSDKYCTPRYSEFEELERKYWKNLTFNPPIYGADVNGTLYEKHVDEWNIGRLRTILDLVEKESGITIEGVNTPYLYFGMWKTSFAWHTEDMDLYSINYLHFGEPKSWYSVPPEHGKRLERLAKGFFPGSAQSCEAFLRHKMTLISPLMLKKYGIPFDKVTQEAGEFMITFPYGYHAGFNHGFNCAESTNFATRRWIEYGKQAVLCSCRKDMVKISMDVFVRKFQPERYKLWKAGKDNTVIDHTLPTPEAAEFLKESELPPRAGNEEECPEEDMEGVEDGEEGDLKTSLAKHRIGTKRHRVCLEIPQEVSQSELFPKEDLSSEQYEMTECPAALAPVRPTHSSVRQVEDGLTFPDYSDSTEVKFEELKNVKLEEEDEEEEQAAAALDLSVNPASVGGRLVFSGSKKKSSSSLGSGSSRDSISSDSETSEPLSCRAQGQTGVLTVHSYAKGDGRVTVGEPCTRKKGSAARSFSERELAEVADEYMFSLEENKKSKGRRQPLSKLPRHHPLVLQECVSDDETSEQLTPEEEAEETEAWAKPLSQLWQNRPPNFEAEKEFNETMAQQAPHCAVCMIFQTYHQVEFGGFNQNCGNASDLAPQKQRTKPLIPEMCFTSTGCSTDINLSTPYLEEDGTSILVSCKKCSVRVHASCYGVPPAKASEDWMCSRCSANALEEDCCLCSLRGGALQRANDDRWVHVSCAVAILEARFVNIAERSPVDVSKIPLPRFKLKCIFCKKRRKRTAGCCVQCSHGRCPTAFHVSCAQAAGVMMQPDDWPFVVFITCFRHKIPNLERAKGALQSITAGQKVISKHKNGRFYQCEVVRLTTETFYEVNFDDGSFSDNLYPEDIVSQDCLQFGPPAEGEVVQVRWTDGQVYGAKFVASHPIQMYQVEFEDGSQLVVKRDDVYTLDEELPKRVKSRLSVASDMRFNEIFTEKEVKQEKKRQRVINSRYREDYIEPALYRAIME
row,Compound,Potency
1,S=C(NCc1ccccn1)Nc1cccc(Cl)c1,"inconclusive: 70.8 µM [inhibitor, single point]"
2,CC(C)(C)OC(=O)N1CCC(c2c(C(=O)NCc3cccs3)cnn2-c2ccc(F)cc2F)CC1,inactive
3,S=C(NCc1cccnc1)NCc1cccnc1,inactive
4,CCOC(=O)/C(C#N)=C/c1ccc(OC(=O)c2ccco2)c(OCC)c1,"inconclusive: 89.1 µM [inhibitor, partial curve]"
5,O=C(NCCCNCc1ccccc1)/C(=N\O)c1ccccc1,"inconclusive: 89.1 µM [inhibitor, single point]"
6,Oc1cccc2ccc(/C=C/c3ccccc3Cl)nc12,"inconclusive: 35.5 µM [inhibitor, single point]"
7,CCOc1ccccc1C=C1SC(=S)NC1=O,"inconclusive: 56.2 µM [inhibitor, partial curve]"
8,O=c1[nH]c2ccc(Cl)cc2c(-c2ccccc2)c1CN1CCOCC1,"inconclusive: 79.4 µM [inhibitor, partial curve]"
9,Cc1ccc(C)c(Nc2c([N+](=O)[O-])c(=O)oc3ccccc23)c1,"inconclusive: 89.1 µM [inhibitor, partial curve]"
10,O=C(Nc1ccc(N2CCCC2)cc1)c1ccc(Br)o1,"inconclusive: 56.2 µM [inhibitor, partial curve]"
11,Cc1ccc(-n2c(C)nnc2SC(C)C(=O)N2CCCC2)cc1 (stereo unspecified),inactive
12,COc1cccc(/C=C/C(=O)Nc2ccc3c(c2)OCCO3)c1OC,"inconclusive: 63.1 µM [inhibitor, partial curve]"
13,Cc1cccc(-c2c3c(=O)n(C)c(=O)n(C)c3cn2-c2cc(N)c(Cl)cc2Cl)c1,"inconclusive: 50.1 µM [inhibitor, partial curve]"
14,CC1CC(C)CN(C(=O)CCC(=O)Nc2nnc(C(C)C)s2)C1 (stereo unspecified),inactive
15,CSc1ccc(-c2nc3ncccn3c2Nc2ccc(C)c(C)c2)cc1,inactive
16,C/C(=C\c1ccco1)C1C(C#N)=C(N)OC2=C1C(=O)CC(C)(C)C2 (stereo unspecified),"inconclusive: 50.1 µM [inhibitor, partial curve]"
17,CCCCn1c(NC(=S)Nc2ccccc2)nc2ccccc21,active: 39.8 µM
18,Cc1oc(-c2cccc3ccccc23)nc1CN1CCN(c2ncnc3ccccc23)CC1,"inconclusive: 56.2 µM [inhibitor, partial curve]"
19,CCc1ccc(NC(=O)c2ccc(-n3cncn3)c([N+](=O)[O-])c2)cc1,inactive
20,CC1(C)CC(=O)C(C(c2ccc(F)cc2)C2C(=O)CC(C)(C)CC2=O)C(=O)C1,inactive
21,COc1ccc(C2=CC(c3ccccc3F)n3ncc(C(=O)Nc4ccc(C)cc4)c3N2)cc1 (stereo unspecified),"inconclusive: 44.7 µM [inhibitor, partial curve]"
